The whole screen tested about 110,000 compounds, of which about 40 (0.04%) were called active. The shares of active, inactive and inconclusive entries below differ from those in the screen. Calls follow the shape of the dose curve; as a rule, active = well fitted curve in the direction sought with a large enough effect in the signal ratio (not every such curve was filed as active); inconclusive = small, poorly fitted or top-dose-only effect, or a change in a side signal; inactive = flat fitted curve, though single readings scatter; the % refers to the signal ratio. Where the call is inconclusive, the potency comes from a doubtful curve fit.
assay: IkB Signaling; conditions: ABC-DLBCL IkBa-CBG/CBR dual luciferase ratio (green luciferase fused to IkBa over red control in OCI-Ly3 lymphoma cells), 4 h; IkBa stabilization activation: at 57.1 µM (top of the series), scaled: untreated 0%, proteasome inhibitor 100% unless noted;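 as to IkBa stabilization activation: 0% = basal untreated cells and 100% = reference inhibitor full response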
Outline: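 Curves were fitted separately to fusion (green), unfused (red) and ratio luminescence, then classed by r2, magnitude and activity. Cells: OCI-Ly3, 4 h compound plus doxycycline at 37C; 10 uM MG-132 defined full response.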
Potency is read from the fitted curve at half-maximal effect.

SMILES	IkBa stabilization activation	Potency
O=C(Nc1cccc(S(=O)(=O)c2cccc(NC(=O)C3CC3)c2)c1)C1CC1	inconclusive: 2.31% [signal inhibitor]	
Cc1ccc(S(=O)(=O)c2ccc(Cl)cc2)cc1S(=O)(=O)N1CCOCC1	inactive	
Cc1c(CNCc2ccc(Cl)cc2)c(C(=O)O)c(C)n1Cc1ccc(F)cc1	inconclusive: 0.177% [signal inhibitor]	
c1cc(OCC2CO2)cc(OCC2CO2)c1 (stereo not given)		inconclusive: 31.6 µM [rising, partial curve]
O=C(Nc1cccc(NC(=O)N2CCN(c3ccccc3)CC2)c1)N1CCN(c2ccccc2)CC1	inconclusive: 15.3% [signal inhibitor]	
Cn1c(=O)oc2cc(S(=O)(=O)N3CCCC(C(=O)N4CC=C(c5ccccc5)CC4)C3)ccc21 (stereo not given)	inconclusive: 7.02% [signal inhibitor]	
COc1ccccc1OCC(=O)Nc1ccccn1		inconclusive: 20 µM [signal inhibitor, partial curve]
CCC1CCCCN1S(=O)(=O)c1ccc(NC(=O)c2cc(=O)c3ccccc3o2)cc1 (stereo not given)	inconclusive: -0.663% [signal inhibitor]	
CCCCOc1ccc(C2c3c(-c4ccccc4O)n[nH]c3C(=O)N2Cc2ccncc2)cc1OC (stereo not given)	inconclusive: -1.2% [signal inhibitor]	
CC(=O)c1cccc(NC(=O)Cn2c(SCC(=O)Nc3ccc(F)cc3)nc3ccccc32)c1	inconclusive: 18.5% [signal inhibitor]	
Cn1nc(-c2ccc(Cl)cc2)c2cc(C(=O)NCCCN3CCCC3)sc21	inactive	
CCOc1cc(C(=O)Nc2ccc3c(c2)OCO3)ccc1OC(F)F	inactive	
COCCCNC(=O)CSc1nc(-c2cccc(F)c2)[nH]c1-c1ccccc1	inactive	
N#C/C(=C\c1ccc(Cl)cc1)C(=O)NCC1CCCO1 (stereo not given)	inactive	
COc1ccc(CCN2C(=O)N(c3ccc(F)cc3)C(=O)C2CC(=O)Nc2ccccc2)cc1 (stereo not given)	inconclusive: 11.9% [signal inhibitor]	
Cc1ccc(NC(=O)CSc2nc(-c3ccc(F)cc3)cc(C(F)(F)F)c2C#N)cc1	inactive	
O=C(CCn1c(=O)c2cccn2c2ccc(F)cc21)NCc1ccccc1F	inactive	
O=C1C2C3C=CC(CO)(O3)C2C(=O)N1c1ccc(-c2ccccc2)cc1 (stereo not given)	inconclusive: 5.73% [signal inhibitor]	

SMILES	IkBa stabilization activation	Potency
CCOc1ccc(C(=O)c2cn(CC(=O)Nc3cc(OC)cc(OC)c3)c3ccc(F)cc3c2=O)cc1	inconclusive: 1.73% [signal inhibitor]	
c1ccc2c(Oc3ccc4c(c3)OCO4)nncc2c1	inactive	
Cc1ccccc1Cn1c(CCCNC(=O)C2CCCCC2)nc2ccccc21	inconclusive: 1.24% [signal inhibitor]	
Cc1noc(C)c1C(=O)Nc1sc(C)c(-c2ccccc2)c1C#N		inconclusive: 12.6 µM [signal inhibitor, partial curve]
O=C(NCC12CC3CC(CC(C3)C1)C2)c1cc2n(n1)C(C(F)(F)F)CC(c1ccco1)N2 (stereo not given)	inactive	
CCCSCCCNC(=O)C1CCN(C(=O)c2cc3sccc3n2C)CC1	inconclusive: -0.274% [signal inhibitor]	
Cc1nnc(N2CCC(C(=O)NC(C)C)CC2)c2nn(-c3ccc(Cl)cc3)c(C)c12	inconclusive: 3.7% [signal inhibitor]	
CC(C)(C)C(=O)C1C(=O)c2ccccc2C1=O	inconclusive: 4.29% [signal inhibitor]	
Cc1ccc(NC(=O)CSc2nc3ccc(NC(=O)c4cccs4)cc3s2)c(C)c1	inconclusive: 0.198% [signal inhibitor]	
COc1cccc(Cn2c(=O)n(-c3cccc(Cl)c3C)c(=O)c3c4c(sc32)CN(C(C)=O)CC4)c1	inconclusive: 2.82% [signal inhibitor]	
CCc1cnc2c(c1SCC(=O)Nc1ccc(Cl)cc1)c(=O)n(C)c(=O)n2C	inconclusive: 5.33% [signal activator]	
Cc1cc2oc(=O)cc(CN3CCN(Cc4ccccc4)CC3)c2cc1Cl	inactive	
COc1ccccc1CNC(=O)Cn1c(=O)oc2cc(S(=O)(=O)N3CCC(C)CC3)ccc21	inconclusive: 7.58% [signal inhibitor]	
COc1cccc(CNCCSc2nnnn2C)c1OCc1ccc(Cl)cc1Cl	inconclusive: 1.54% [signal inhibitor]	
c1cnc(N2CCN(c3nc4ccccc4n4cnnc34)CC2)nc1	inactive	
Cc1cccn2cc(-c3cccc(NS(=O)(=O)c4ccc(Cl)c(Cl)c4)c3)nc12	inconclusive: -8.51% [signal inhibitor]	
CCc1ccc(CNC(=O)CCc2c(C)nn(-c3ccc(N4CCCCC4)nn3)c2C)cc1	inconclusive: 2.15% [signal inhibitor]	
